# Data taken from the supplement of paper PMC8728848.
# Some of the results follow.
# Legend:
# Test in all cases: glycan array binding signal (z-score within array); higher = stronger binding
# Conditions in all cases: glycan notation: IUPAC condensed, linker removed
# [1] = biological target: Fuc(a1-2)Gal
# How it was run: (§1)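 The binding signal is a Z-score computed within each array. Data were drawn from 3228 arrays in the Consortium for Functional Glycomics database, restricted to those with a known protein sequence. Scores were averaged over arrays of the same protein sequence at different concentrations or buffers, and over linkers, and negative values can be taken as non-binding.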
# [2] = biological target: Fuc(a1-2)Gal(b1-3)GalNAc
# How it was run: as §1
# [3] = biological target: Fuc(a1-2)Gal(b1-3)GalNAc(a1-3)[Fuc(a1-2)]Gal(b1-4)Glc
# How it was run: as §1
# [4] = biological target: Fuc(a1-2)Gal(b1-3)GalNAc(a1-3)[Fuc(a1-2)]Gal(b1-4)GlcNAc
# How it was run: as §1
# [5] = biological target: Fuc(a1-2)Gal(b1-3)GalNAc(b1-3)Gal
# How it was run: as §1
# [6] = biological target: Fuc(a1-2)Gal(b1-3)GalNAc(b1-3)Gal(a1-4)Gal(b1-4)Glc
# How it was run: as §1
# [7] = biological target: Fuc(a1-2)Gal(b1-3)GalNAc(b1-4)[Neu5Ac(a2-3)]Gal(b1-4)Glc
# How it was run: as §1
# [8] = biological target: Fuc(a1-2)Gal(b1-3)GlcNAc
# How it was run: as §1
# [9] = biological target: Fuc(a1-2)Gal(b1-3)GlcNAc(b1-2)Man(a1-3)[Fuc(a1-2)Gal(b1-3)GlcNAc(b1-2)Man(a1-6)]Man(b1-4)GlcNAc(b1-4)GlcNAc
# How it was run: as §1
# [10] = biological target: Fuc(a1-2)Gal(b1-3)GlcNAc(b1-2)Man(a1-3)[Fuc(a1-2)Gal(b1-3)GlcNAc(b1-2)Man(a1-6)]Man(b1-4)GlcNAc(b1-4)[Fuc(a1-6)]GlcNAc
# How it was run: as §1
# [11] = biological target: Fuc(a1-2)Gal(b1-3)GlcNAc(b1-3)Gal(b1-4)Glc
# How it was run: as §1
# [12] = biological target: Fuc(a1-2)Gal(b1-3)GlcNAc(b1-3)GalNAc
# How it was run: as §1
# [13] = biological target: Fuc(a1-2)Gal(b1-3)GlcNAc(b1-3)[Fuc(a1-2)Gal(b1-3)GlcNAc(b1-6)]GalNAc
# How it was run: as §1
# [14] = biological target: Fuc(a1-2)Gal(b1-3)GlcNAc(b1-3)[Gal(b1-4)GlcNAc(b1-6)]Gal(b1-4)Glc
# How it was run: as §1
# [15] = biological target: Fuc(a1-2)Gal(b1-3)GlcNAc(b1-3)[Neu5Ac(a2-6)Gal(b1-4)GlcNAc(b1-6)]Gal(b1-4)Glc
# How it was run: as §1
# [16] = biological target: Fuc(a1-2)Gal(b1-3)GlcNAc6S
# How it was run: as §1
# [17] = biological target: Fuc(a1-2)Gal(b1-3)[Fuc(a1-4)]GlcNAc
# How it was run: as §1
# [18] = biological target: Fuc(a1-2)Gal(b1-3)[Fuc(a1-4)]GlcNAc(b1-2)Man(a1-3)[Fuc(a1-2)Gal(b1-3)[Fuc(a1-4)]GlcNAc(b1-2)Man(a1-3)]Man(b1-4)GlcNAc(b1-4)GlcNAc
# How it was run: as §1
# [19] = biological target: Fuc(a1-2)Gal(b1-3)[Fuc(a1-4)]GlcNAc(b1-2)Man(a1-3)[Fuc(a1-2)Gal(b1-3)[Fuc(a1-4)]GlcNAc(b1-2)Man(a1-6)]Man(b1-4)GlcNAc(b1-4)[Fuc(a1-6)]GlcNAc(b1-4)[Fuc(a1-6)]GlcNAc
# How it was run: as §1
# [20] = biological target: Fuc(a1-2)Gal(b1-3)[Fuc(a1-4)]GlcNAc(b1-3)[Fuc(a1-3)[Gal(b1-4)]GlcNAc(b1-6)]Gal(b1-4)Glc
# How it was run: as §1
# [21] = biological target: Fuc(a1-2)Gal(b1-3)[Fuc(a1-4)]GlcNAc(b1-3)[Gal(b1-4)GlcNAc(b1-6)]Gal(b1-4)Glc
# How it was run: as §1
# [22] = biological target: Fuc(a1-2)Gal(b1-4)Fuc(a1-3)]GlcNAc(b1-2)Man(a1-3)[Fuc(a1-2)Gal(b1-4)[Fuc(a1-3)]GlcNAc(b1-2)Man(a1-6)]Man(b1-4)GlcNAc(b1-4)GlcNAc
# How it was run: as §1
# [23] = biological target: Fuc(a1-2)Gal(b1-4)Glc
# How it was run: as §1
# [24] = biological target: Fuc(a1-2)Gal(b1-4)Glc6S
# How it was run: as §1
# [25] = biological target: Fuc(a1-2)Gal(b1-4)GlcNAc
# How it was run: as §1
# [26] = biological target: Fuc(a1-2)Gal(b1-4)GlcNAc(b1-2)Man
# How it was run: as §1
# [27] = biological target: Fuc(a1-2)Gal(b1-4)GlcNAc(b1-2)Man(a1-3)[Fuc(a1-2)Gal(b1-4)GlcNAc(b1-2)Man(a1-6)]Man(b1-4)GlcNAc(b1-4)GlcNAc
# How it was run: as §1
# [28] = biological target: Fuc(a1-2)Gal(b1-4)GlcNAc(b1-2)Man(a1-3)[Fuc(a1-2)Gal(b1-4)GlcNAc(b1-2)Man(a1-6)]Man(b1-4)GlcNAc(b1-4)[Fuc(a1-6)]GlcNAc
# How it was run: as §1
# [29] = biological target: Fuc(a1-2)Gal(b1-4)GlcNAc(b1-2)[Fuc(a1-2)Gal(b1-4)GlcNAc(b1-4)]Man(a1-3)[Fuc(a1-2)Gal(b1-4)GlcNAc(b1-2)Man(a1-6)]Man(b1-4)GlcNAc(b1-4)GlcNAc
# How it was run: as §1
# [30] = biological target: Fuc(a1-2)Gal(b1-4)GlcNAc(b1-3)Gal(b1-4)GlcNAc
# How it was run: as §1
binder,measurement,setting,value
"InvD YPIII (Yersinia pseudotuberculosis), B1JSC0 (protein) MIKYFSFFKKPEPIVGILPNRQSHHILPTHIRRVAWGTLLLQLFIPLSVSFSPAIAAMKASKADTMVSYSSTEPYVLGSGETVAMVAKKYGITVDELKKINIYRTFSRPFTALTTGDEIDIPRKASPFSVDNNKDNRLSVENTLAGHAVAGATALSNGDVAKSGERMVRSAASNEFNNSAQQWLSQFGTARVQLNINDDFHLDGSAADVLIPLYDNEKSILFTQLGARNKDSRNTVNMGAGVRTFQGNWMYGANTFFDNDLTGKNRRIGVGAEAWTDYLKLSANNYFGITDWHQSRDFIDYNERPANGYDLRAEAYLPSYPQLGGKAMYEKYRGDDVALFGKDNRQKNPHAITAGVNYTPIPLVTIGAEHRAGKGGQNDSNINFQLNYRLGETWQSHIDPSAVAASRTLAGSRYDLVERNNHIVLDYQKQNLVRLSLPDSLAGDPFSQLSVTAQVTATHGLERIDWQSAELMAAGGVLKQTSKNGLEITLPEYQMNRTGGNSYILNAIAYDTQGNASSQASMLITVNAQKINIANSTLVAVPINIEANNSDTSVVTLTLKDDNNIPVTGQDVTFLSPLGTLSAMTDSGNGVYTATLTAGTVSGTTAVSSNINGSALDMTPATVTLNGNSGELSITHSMLVAAPVNIEANGSDTSVVTLTLRDSNNNPVTGQTVTFAGTLGTLGAVTEGSSGVYTATLTAGIMVGTSSITASVNSTALGVTPATVTLNGDSGNLSTTNSTLVAAPVNIEANSSDTSVVTLTLRDNNNNPVTGQTVVFTSTLGTLGNVTEQASGVYTATLTAGTVSGVASLSVSVGGNALGVTPATVTLNGDSGNLSTTNSTLVAAPVNIEANSSDTSVVTLTLRDNNNNPVTGQTVNFAGTLGTLGTVSEGSSGVYTTTLTAGTVAGVASLSVNVGGNALGVTPATVTLNGNSGNLSATNSTLVAAPVNIEANSSDTSVVTLTLRDNNNNPVTGQTVAFTSTLGTLGNVTEQASGVYTATLTAGTVSGVASLSVSVNSNALGVTPATVTLNGDSGNLSTTNSTLVAAPVNIEANSSDTSVVTLTLRDNNNNPVTGQTVAFTSTLGTLGNVTEQASGLYTATLTAGTVSGVASLSVNVGGNALGVTPATVTLNGDSGNLSATNSTLVAAPVNIEANSSDTSVVTLTLRDNNNNPVTGQTVAFTSTLGTLGNVTEQASGLYTATLTAGTVSGVASLSVNVGGTALGVTPATVTLNGDSGNLSTTNSTLVAAPVNIEANSSDTSVVTLTLRDNNNNPVTGQTVAFTSTLGTLGNVTEQASGLYTATLTAGTVSGVASLSVSVNSTALGVTPATVTLNGDSGNLSTTNSTLVAAPVNIEANSSDTSVVTLTLRDNNNNPVTGQTVAFTSTLGTLGNVTEQASGVYTATLTAGTVAGVASLSVNVGGNALGVTPATVTLNGDSGNLSTTNSTLVAAPVNIEANSSDTSVVTLTLRDNNNNPVTGQTVAFTSTLGTLGNVTEQASGVYTATLTAGTVSGVASLSVSVGSSALGVTPATVTLNGDSGNLSTTNSTLVAAPVNIEANNSDTSVVTLTLRDNNNNPVTGQTVAFTSTLGTLGNVTEQASGVYTATLTAGTVSGVASLSVSVNSNALGVTPATVTLNGDSGNLSTTNSTLVAAPVNIEANSSDTSVVTLTLRDNNNNPVTGQTVVFTSTLGTLGNVTEQASGLYTATLTAGTVSGVASLSVSVGGNALGVTGNITLAPGALDAARSILAVNKPSINADDRIGSTITFTAQDAQGNAITGLDIAFMTDLENSQIMTLVDHNDGTYTANINGTQTGIANIAVQSSGATIAGLAATMVTITPGAWNTTQATPVMTVALPITTCQSSSGVYKRYYIGIVTHELYDNYGNEISGILTYNLGAGRYTTVTSQNSSVSGSNGLTRRSNSPVSHFILTSDAYTSQAACYAERIANVNVTITVTAITDDFKTSAVNKVFILGTGSN",glycan array binding signal (z-score),[1],-0.299
same,glycan array binding signal (z-score),[2],-0.203
same,glycan array binding signal (z-score),[3],-0.195
same,glycan array binding signal (z-score),[4],-0.404
same,glycan array binding signal (z-score),[5],-0.304
same,glycan array binding signal (z-score),[6],-0.14
same,glycan array binding signal (z-score),[7],-0.15
same,glycan array binding signal (z-score),[8],-0.32
same,glycan array binding signal (z-score),[9],0.001
same,glycan array binding signal (z-score),[10],0.675
same,glycan array binding signal (z-score),[11],-0.25
same,glycan array binding signal (z-score),[12],-0.26
same,glycan array binding signal (z-score),[13],0.095
same,glycan array binding signal (z-score),[14],-0.265
same,glycan array binding signal (z-score),[15],-0.231
same,glycan array binding signal (z-score),[16],-0.04
same,glycan array binding signal (z-score),[17],-0.291
same,glycan array binding signal (z-score),[18],0.493
same,glycan array binding signal (z-score),[19],-0.034
same,glycan array binding signal (z-score),[20],-0.437
same,glycan array binding signal (z-score),[21],0
same,glycan array binding signal (z-score),[22],1.36
same,glycan array binding signal (z-score),[23],-0.256
same,glycan array binding signal (z-score),[24],-0.048
same,glycan array binding signal (z-score),[25],-0.154
same,glycan array binding signal (z-score),[26],-0.164
same,glycan array binding signal (z-score),[27],0.511
same,glycan array binding signal (z-score),[28],0.037
same,glycan array binding signal (z-score),[29],0.402
same,glycan array binding signal (z-score),[30],-0.407
